Experimental findings from the antibiotic and cytotoxicity screens of Wong et al. (2023) are described below.

Some of the results follow.

The first experiment deals with HepG2. Description: cytotoxicity call (relative viability < 0.9). As to conditions: 10 µM.
With `Cc1cc(C)n(C(=O)Cn2cc([N+](=O)[O-])cn2)n1`, the cytotoxicity call is “inactive”.
With `C[C@H](CO)N1C[C@H](C)[C@H](CN(C)S(=O)(=O)c2ccccc2)Oc2cc(Br)ccc2S1(=O)=O`, the cytotoxicity call is “inactive”.
Still for that read-out and setting: then `C[C@@H]1CN([C@@H](C)CO)C(=O)c2cc(NS(=O)(=O)c3ccc(Cl)cc3)ccc2O[C@H]1CN(C)Cc1ccc(C(F)(F)F)cc1`, with “inactive”.
On the same count and under the same terms, then `C[C@@H]1CN([C@@H](C)CO)S(=O)(=O)c2ccc(C#CCN(C)C)cc2O[C@H]1CN(C)S(=O)(=O)c1cccc(F)c1`, with “inactive”.
On the same count and under the same terms, then `C[C@H]1CCCCO[C@@H](CN(C)C(=O)Nc2ccc(F)cc2)[C@@H](C)CN([C@@H](C)CO)C(=O)c2cc(NC(=O)c3ccccc3)ccc2O1`, with “inactive”; and `C[C@@H]1CCCCO[C@@H](CN(C)C(=O)c2ccccc2)[C@@H](C)CN([C@H](C)CO)C(=O)c2cc(NS(=O)(=O)c3ccccc3)ccc2O1`, with “inactive”.
For the molecule `C[C@@H]1CN([C@H](C)CO)C(=O)c2cc(C#CC3(O)CCCC3)cnc2O[C@H]1CN(C)S(C)(=O)=O`, the cytotoxicity call was “inactive”.
On the same count and under the same terms, then `Cc1noc(C)c1NC(=O)N(C)C[C@@H]1Oc2ccc(NC(=O)C3CC3)cc2C(=O)N([C@@H](C)CO)C[C@H]1C`, with “inactive”.
As to `O=C(O)C[C@@H](O)C(=O)O`, the cytotoxicity call is “inactive”.
Turning to `C[C@@H]1CN([C@@H](C)CO)C(=O)Cc2cc(NC(=O)Nc3ccc(F)cc3)ccc2O[C@H]1CN(C)Cc1ccc(Cl)c(Cl)c1`, the cytotoxicity call was “active”.
Still for that read-out and setting: for `C[C@H](CO)N1C[C@H](C)[C@@H](CN(C)C(=O)c2ccccc2)OCCCC[C@H](C)Oc2ccc(NC(=O)NC3CCCCC3)cc2C1=O` the value was “inactive”; for `CC[C@@H]1OC(=O)C[C@@H](O)[C@H](C)[C@@H](O[C@@H]2O[C@H](C)[C@@H](O)[C@H](N(C)C)[C@H]2O)[C@@H](CCN2C[C@H](C)C[C@H](C)C2)C[C@@H](C)C(=O)/C=C/C(C)=C\[C@@H]1CO[C@@H]1O[C@H](C)[C@@H](O)[C@@H](OC)[C@H]1OC`, “inactive”; for `C[C@@H]1CN([C@H](C)CO)C(=O)c2c(c3ccccc3n2C)-c2ccccc2CO[C@H]1CN(C)Cc1ccccc1C(F)(F)F`, “active”.
With `C[C@H]1CCCCO[C@H](CN(C)C(=O)c2ccccc2)[C@@H](C)CN([C@@H](C)CO)C(=O)c2cc(NC(=O)CCC(F)(F)F)ccc2O1`, the cytotoxicity call was “inactive”.

The next experiment relates to S. aureus RN4220. The experiment in a line: growth inhibition call (relative growth <= 0.2). As to conditions: 50 µM.
Consider `O=C(C[C@H]1CC=CCC[C@@H](Cc2ccc(F)cc2)C(=O)OC[C@H](Cc2ccccc2)NC1=O)NCCO`, for which the growth inhibition call was “inactive”.
Take `C[C@@H]1CCCCO[C@H](CN(C)Cc2ccc(C(F)(F)F)cc2)[C@@H](C)CN([C@H](C)CO)C(=O)c2cc(NC(=O)c3ccccc3)ccc2O1`: the growth inhibition call was “inactive”.
As to `COc1ccccc1CN(C)C[C@@H]1OCc2ccccc2-c2c(n(C)c3ccccc23)C(=O)N([C@@H](C)CO)C[C@@H]1C`, the growth inhibition call was “inactive”.
Take `CCCNC(=O)N(C)C[C@H]1Oc2cc(C#Cc3ccccn3)ccc2S(=O)(=O)N([C@H](C)CO)C[C@@H]1C`: the growth inhibition call is “inactive”.
Turning to `C[C@@H]1CN([C@H](C)CO)C(=O)CCCn2nncc2CO[C@H]1CN(C)C(=O)Nc1ccccc1C(F)(F)F`, the growth inhibition call was “inactive”.
For `O=C(C[C@H]1C[C@H]2c3cc(NS(=O)(=O)c4ccccc4)ccc3O[C@H]2[C@H](CO)O1)NCC(F)(F)F`, the growth inhibition call was “inactive”.
The same measure, in the same setting: then `CC[C@H]1OC(=O)[C@H](C)[C@@H](O[C@H]2C[C@@](C)(OC)[C@@H](O)[C@H](C)O2)[C@H](C)[C@@H](O[C@@H]2O[C@H](C)C[C@H](N(C)C)[C@H]2O)[C@](C)(O)C[C@@H](C)C(=O)[C@H](C)[C@@H](O)[C@]1(C)O`, with “active”; and `C[C@H](CO)N1C[C@H](C)[C@H](CN(C)Cc2ccc(-c3ccccc3)cc2)Oc2ccc(NC(=O)CCC(F)(F)F)cc2CC1=O`, with “inactive”; and `C[C@@H]1CCCCO[C@@H](CN(C)C(=O)C2CCCCC2)[C@@H](C)CN([C@@H](C)CO)C(=O)c2cc(NC(=O)Nc3ccc(C(F)(F)F)cc3)ccc2O1`, with “inactive”.
Still for that read-out and setting: then `COc1ccc(S(=O)(=O)N(C)C[C@@H]2OCCCC[C@H](C)Oc3ccc(NS(=O)(=O)c4ccc(Cl)cc4)cc3C(=O)N([C@@H](C)CO)C[C@H]2C)cc1`, with “inactive”; and `C[C@@H]1CCCCO[C@@H](CN(C)CC2CCCCC2)[C@H](C)CN([C@@H](C)CO)C(=O)c2cc(NS(=O)(=O)c3cccs3)ccc2O1`, with “inactive”; and `CO[C@@H]1CN(C)C(=O)c2cc(NC(=O)Nc3ccc4c(c3)OCO4)ccc2OC[C@@H](C)N(C(C)=O)C[C@H]1C`, with “inactive”.
Still for that read-out and setting: for `Cc1cc(C(=O)Nc2cccc3c2O[C@@H](CN(C)S(C)(=O)=O)[C@@H](C)CN([C@@H](C)CO)C3=O)n(C)n1` the value was “inactive”.
For `COc1ccc(NC(=O)Nc2ccc3c(c2)C(=O)N([C@H](C)CO)C[C@H](C)[C@@H](CN(C)C(=O)Nc2cccc4ccccc24)OCCCC[C@H](C)O3)cc1`, the growth inhibition call was “inactive”.
On the same count and under the same terms, then `C[C@H]1CN([C@@H](C)CO)C(=O)c2cccc(NC(=O)Nc3ccc(C(F)(F)F)cc3)c2O[C@H]1CN(C)Cc1ccc(Cl)c(Cl)c1`, with “inactive”; and `COCC(=O)Nc1ccc2c(c1)OC[C@@H](C)N(C(=O)Cc1ccccn1)C[C@@H](C)[C@@H](OC)CN(C)C2=O`, with “inactive”.
With `COC(=O)C(CC#Cc1ccc2c(c1)[C@]1(C(=O)N2)[C@H](c2ccc(O)cc2)N2[C@H](c3ccccc3)[C@H](c3ccccc3)OC(=O)[C@H]2[C@@H]1C(=O)NC[C@H](O)c1ccccc1)C(=O)OC`, the growth inhibition call is “inactive”.
With `COc1ccc(S(=O)(=O)N(C)C[C@H]2Oc3ccc(NC(=O)Cn4cnnn4)cc3CC(=O)N([C@@H](C)CO)C[C@@H]2C)cc1`, the growth inhibition call was “inactive”.
As for `O=C(O)C1=CO[C@@H](O[C@@H]2O[C@H](CO)[C@@H](O)[C@H](O)[C@H]2O)[C@@H]2C(CO)=CC[C@H]12`, the growth inhibition call is “inactive”.
On the same count and under the same terms, then `Cc1ccc(S(=O)(=O)Nc2ccc3c(c2)C(=O)N([C@@H](C)CO)C[C@@H](C)[C@H](CN(C)C(=O)CCC(F)(F)F)OCCCC[C@H](C)O3)cc1`, with “inactive”.
The same measure, in the same setting: for `C[C@@H]1CN([C@@H](C)CO)C(=O)c2cc(NC(=O)Nc3cccc4ccccc34)ccc2O[C@@H](C)CCCCO[C@@H]1CN(C)Cc1ccccc1` the value was “inactive”; for `Cc1ccc(S(=O)(=O)N(C)C[C@H]2Oc3ncc(-c4ccncc4)cc3C(=O)N([C@@H](C)CO)C[C@H]2C)cc1`, “inactive”.
For the molecule `C[C@@H]1CN([C@@H](C)CO)C(=O)c2cc(NC(=O)c3ccccc3)ccc2O[C@@H](C)CCCCO[C@@H]1CN(C)C(=O)Nc1ccccc1`, the growth inhibition call was “inactive”.
Turning to `CC(=O)Oc1ccc2c(C)cc(=O)oc2c1`, the growth inhibition call is “inactive”.
Same read-out and setting: then `CC=Cc1ccc2n(c1=O)C[C@H]1[C@H](CO)[C@@H](C(=O)NC3CCC3)N(S(C)(=O)=O)[C@@H]21`, with “inactive”; and `Cc1noc(C)c1S(=O)(=O)N(C)C[C@H]1Oc2ccc(NC(=O)Cn3cnnn3)cc2CC(=O)N([C@H](C)CO)C[C@H]1C`, with “inactive”; and `Cc1cc(C)n(C(=O)Cn2cc([N+](=O)[O-])cn2)n1`, with “inactive”.
For the molecule `C[C@H](CO)N1C[C@H](C)[C@H](CN(C)S(=O)(=O)c2ccccc2)Oc2cc(Br)ccc2S1(=O)=O`, the growth inhibition call is “inactive”.
`C[C@@H]1CN([C@@H](C)CO)C(=O)c2cc(NS(=O)(=O)c3ccc(Cl)cc3)ccc2O[C@H]1CN(C)Cc1ccc(C(F)(F)F)cc1`: the growth inhibition call is “inactive”.
Same read-out and setting: for `C[C@@H]1CN([C@@H](C)CO)S(=O)(=O)c2ccc(C#CCN(C)C)cc2O[C@H]1CN(C)S(=O)(=O)c1cccc(F)c1` the value was “inactive”.
As to `C[C@H]1CCCCO[C@@H](CN(C)C(=O)Nc2ccc(F)cc2)[C@@H](C)CN([C@@H](C)CO)C(=O)c2cc(NC(=O)c3ccccc3)ccc2O1`, the growth inhibition call is “inactive”.
As to `C[C@@H]1CCCCO[C@@H](CN(C)C(=O)c2ccccc2)[C@@H](C)CN([C@H](C)CO)C(=O)c2cc(NS(=O)(=O)c3ccccc3)ccc2O1`, the growth inhibition call was “inactive”.
The same measure, in the same setting: then `C[C@@H]1CN([C@H](C)CO)C(=O)c2cc(C#CC3(O)CCCC3)cnc2O[C@H]1CN(C)S(C)(=O)=O`, with “inactive”.
Still for that read-out and setting: then `Cc1noc(C)c1NC(=O)N(C)C[C@@H]1Oc2ccc(NC(=O)C3CC3)cc2C(=O)N([C@@H](C)CO)C[C@H]1C`, with “inactive”; and `O=C(O)C[C@@H](O)C(=O)O`, with “inactive”; and `C[C@@H]1CN([C@@H](C)CO)C(=O)Cc2cc(NC(=O)Nc3ccc(F)cc3)ccc2O[C@H]1CN(C)Cc1ccc(Cl)c(Cl)c1`, with “inactive”.
With `C[C@H](CO)N1C[C@H](C)[C@@H](CN(C)C(=O)c2ccccc2)OCCCC[C@H](C)Oc2ccc(NC(=O)NC3CCCCC3)cc2C1=O`, the growth inhibition call was “inactive”.
In the case of `CC[C@@H]1OC(=O)C[C@@H](O)[C@H](C)[C@@H](O[C@@H]2O[C@H](C)[C@@H](O)[C@H](N(C)C)[C@H]2O)[C@@H](CCN2C[C@H](C)C[C@H](C)C2)C[C@@H](C)C(=O)/C=C/C(C)=C\[C@@H]1CO[C@@H]1O[C@H](C)[C@@H](O)[C@@H](OC)[C@H]1OC`, the growth inhibition call was “active”.
Consider `C[C@@H]1CN([C@H](C)CO)C(=O)c2c(c3ccccc3n2C)-c2ccccc2CO[C@H]1CN(C)Cc1ccccc1C(F)(F)F`, for which the growth inhibition call is “inactive”.
On the same count and under the same terms, then `C[C@H]1CCCCO[C@H](CN(C)C(=O)c2ccccc2)[C@@H](C)CN([C@@H](C)CO)C(=O)c2cc(NC(=O)CCC(F)(F)F)ccc2O1`, with “inactive”.
